# Some compounds were tested as several samples or in several runs, with calls that do not always agree.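 Results are percent growth after 48 hours of single-concentration exposure. 100 means growth as in untreated cells, lower positive values show inhibition; negative values down to -100 show cell death.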 A number of entries come with more than one value. They are shown here; other results are not. An entry can have further records. For part of these data: This drug was run again and again over the years, at the concentration stated with the values; one value stands for one run. Counts like (3×) say how often a value occurs here. Some values that stand alone complete this part of the results. Active and inactive are the calls of the source. Rule for the calls: active = growth percent below 10; inactive = the rest.
# How the values were obtained:
# [1] = test system: IGROV1 ovarian; assay: NCI-60 one-dose screen, 48 h (100 = growth as untreated, 0 = no growth, -100 = all killed); settings: 25 µM; runs of 2000
# [2] = test system: OVCAR-3 ovarian; assay: as above; settings: 0.25 µM
compound,measurement,setting,value
COc1cccc2c1C(=O)c1c(O)c3c(c(O)c1C2=O)C[C@@](O)(C(=O)CO)C[C@@H]3OC1CC(N)C(O)C(C)O1 (stereo not given in full),growth,[1],"active: -100% (2×), -78.7%"
same,growth,[2]; runs of 2006,inactive: 65.9%
same,growth,[2]; runs of 2007,"inactive: 63.7, 59.9, 73.6, 64.2, 64, 62.1, 73, 84.4, 83.1, 70.8, 71.4, 76.4, 78.1, 49, 47.6, 61, 50.5, 58.7, 68.8, 65.1, 76, 80, 86.2, 67.5, 51.4, 64.6, 72.4, 76.1, 74, 90.3, 91.6, 47.5, 65.2, 50.3, 58.6, 55.3, 53.5, 67.4% and active: 6.28%"
same,growth,[2]; runs of 2008,"inactive: 66.5 (2×), 58.9, 59.4, 62.7, 60.5, 73.2, 72.7, 66.2, 77.4, 79.5, 74.5, 69.7, 78.9, 34.1, 63.3, 54.6, 50, 33.2, 54.2, 46.7, 51, 60, 46.5, 44.8, 101, 66.3, 26.8, 38.9, 54.3, 19, 34.6, 55.7, 45.3, 31.8, 32.1, 35.8, 36.5, 64.7, 63.1, 74, 48.6, 63.8, 55.5, 76.2, 40.4, 41.6, 46.2, 35, 69.1, 50.5, 54, 58.7% and active: 8.79%"
same,growth,[2]; runs of 2009,"inactive: 50.1, 51.8, 52.2, 52.7 (2×), 56, 49.5, 63.6 (2×), 61.8 (2×), 63.1, 61.3, 68.5 (3×), 61.7, 59.8, 60.5, 65.1 (2×), 76.9 (2×), 61.4, 73.7, 65.8, 71.1 (2×), 73, 56.4, 33.3, 48.2, 57.6, 53.5, 66.6, 64.3, 57.5, 78.1, 60.4, 46.2, 46.9, 39.4, 77.5, 41.7 (2×), 61.9, 50.7, 42, 58.9, 79.4, 79.8, 69.6, 40.7, 55.4, 81.1, 71.4, 80.4, 55.8, 72.1, 77.6, 56.8, 99.3, 81.4, 74.1, 64.7, 92.2, 74.3, 83, 78.4, 80.2%"
same,growth,[2]; runs of 2010,"inactive: 85 (2×), 90.1, 79.4, 74.3, 75.8 (2×), 92.3, 85.2, 84.1, 88.4, 78.9, 77.3 (2×), 70.5, 66.6 (2×), 78.2, 74.7, 65.5, 65.4, 69.6, 48, 67.7, 53.9, 72.4, 64.5, 62.4, 60.3, 61.1, 78.3, 77.8, 64.3, 69.1, 46.8, 74, 59.5, 71.3, 72.6, 73.2, 59.1, 63.3, 68.4, 59.4, 86, 68.1, 57.9, 74.5, 88, 82.8, 62.7, 71.2, 80.5, 77.5%"
same,growth,[2]; runs of 2011,"inactive: 70.6, 79.1, 78, 74.9 (2×), 84.4, 77.5, 76.2, 73.1 (2×), 83.8, 91.3, 75.1, 80.5 (2×), 88.2 (2×), 82.8, 86.1, 88.7, 88.5, 84.6, 88.9, 93.4, 87.9, 95.1, 88.4, 81.1, 79.7, 86.8, 79.8, 72.9, 80.3, 71.7, 52.1, 84, 62.4, 77.4, 73.7, 78.4, 79, 79.2, 64.6, 58.3, 68.7 (3×), 66.5, 73.2, 52.5, 80.8, 79.4, 72.3, 92.1, 79.3, 77.3%"
same,growth,[2]; runs of 2012,"inactive: 86.5, 76.5, 75.8, 75.1, 74.5 (3×), 83.2, 87.4, 84.4, 76.9, 74.3 (2×), 52.5, 46.6, 78.1, 80.4, 91.3, 87, 83.8, 88.4, 90.7, 102 (2×), 90.9 (2×), 90.4, 97.2, 96.5, 95.6, 95.7, 83.1, 106, 88.3, 92.2, 84.9, 83.6, 88.7, 60.5, 86.7, 81.4, 69, 66.1, 80.8, 73.1, 87.9, 89.3, 85, 86.8, 91.6, 100, 91.1, 89.2, 85.2, 84.8, 96.3, 85.7, 97.6, 84.6, 75, 61.7, 66.3, 60.2, 79.2, 67.8, 76.1, 71.4, 73.3, 64.8%"
same,growth,[2]; runs of 2013,"inactive: 59.1 (2×), 63.2, 70.1, 67.5, 69.6 (2×), 76.1, 68, 79.2 (3×), 70.6 (2×), 64.7 (2×), 75.9 (3×), 77.8 (2×), 78.5, 73.4, 66.3 (2×), 81.1, 72 (2×), 62.9, 72.9, 60.1, 77.2 (2×), 90.1, 76.3, 82, 87.7, 77.4, 87.6, 72.4, 82.5, 77.9, 88.4, 79.8, 76.8, 88.2, 79.5, 69.1, 84, 72.3, 69.4, 77, 68.7, 65.9, 52.1, 62.6, 59.7, 66.5, 60.2, 64.2, 53.9, 64.6 (2×), 70.3, 71.9, 56.7, 60.7, 65.5%"
same,growth,[2]; runs of 2014,"inactive: 70.1, 69.9, 64.2, 58.7, 55.9, 56.8 (2×), 55.3, 61 (2×), 50.2, 66.5, 61.8, 61.2 (2×), 73.7, 59.9, 70.6 (2×), 58.5, 72.4, 68.5, 68.8 (2×), 64.8, 63.7, 69.1, 62.5 (2×), 61.1, 62.4 (2×), 62.8, 76.9 (2×), 73.9 (2×), 76.2, 73.3, 74.1, 70, 72.6 (2×), 73.1, 71.3, 69.4, 76, 70.9, 59.8 (2×), 64.7, 65.5, 65.4, 66.7, 63.8, 63.6, 65.1, 58.1, 60.5, 57.2, 65.2 (3×), 66.8 (2×), 71.9, 63, 79.3, 74.3, 68.1, 66.1, 69.6%"
same,growth,[2]; runs of 2015,"inactive: 74.8, 62.4 (2×), 58.2, 65.1, 55.7, 65.5, 72.4, 71.8 (2×), 68.6, 65.9 (2×), 64.4, 72.1, 71.3, 76.2, 64, 52.8, 52, 59.4, 60.1 (2×), 56.3 (2×), 59, 71.9, 79.4, 68.7, 69.4 (2×), 55.2 (2×), 57, 57.9 (3×), 49.7, 58.6 (2×), 56.8 (2×), 55.3, 55.9, 55.6, 55.5, 87.9, 81.1, 61.9, 63.8, 53.4, 56.7, 68, 66.1, 64.8, 62.1, 68.5, 56, 44.5, 63.7, 76.5, 60.4, 65.6, 56.1, 55.4, 54.7, 68.4 (3×), 69.9, 64.7, 69.1, 66.7, 71.4, 63.2, 66.5, 57.4, 58.9, 64.6, 59.6, 60.2, 61.7, 56.9, 70.4%"
same,growth,[2]; runs of 2016,"inactive: 65.5 (3×), 56.9 (2×), 62.9, 59, 72.9 (2×), 68.7 (3×), 63.9 (2×), 66.5, 63, 66.2 (2×), 64, 53 (2×), 53.4, 57.8, 51.6, 46.6, 61.4, 52.2, 55.2, 55.4, 58, 61.7, 57.1, 56.5, 57.6, 59.7, 59.2, 56.8, 60.3, 57.2, 63.4, 55.7, 65.3, 61.2 (2×), 69.7, 72.1 (2×), 70 (2×), 68 (2×), 73.7 (3×), 65.8, 65.2, 69.9, 66.6, 67.5 (2×), 73.9, 82.2, 71.2, 70.3, 76.5, 76.1 (2×), 78.6 (2×), 73.3, 80.4, 76.8 (2×), 78.1, 78.2, 75.7, 76, 69, 67.2, 67.9, 70.5%"
same,growth,[2]; runs of 2017,"inactive: 73.8, 68, 66.5, 64, 62.2 (4×), 60.5, 64.9 (2×), 69.5 (2×), 59.7 (3×), 57.4, 64.3, 62.8, 61.1 (2×), 55.4, 52, 53.1, 62.7 (3×), 65.9 (3×), 57.2, 54.5, 63.1 (3×), 57 (2×), 57.7, 63.7, 65.1, 68.6, 67.5, 64.8, 58.6, 60.8, 43.8, 65.2, 64.4, 61.2, 61.4, 63.2, 61.9, 70, 71.4, 66.8, 62.3, 60.3, 60.4, 72.7, 75, 67.3 (2×), 76.4, 75.8, 70.8, 71.2, 74, 72, 57.9, 68.5, 72.6, 63.6, 65, 68.8, 67.4, 65.3%"
same,growth,[2]; runs of 2018,"inactive: 72.4, 69.5 (2×), 60.1, 60.7, 69.1, 67.4, 65.3, 60.6, 57.6, 65.5, 74 (2×), 67.9, 65.8, 78.5, 74.2, 77.2, 73.3, 71.2 (2×), 69.9, 70.9, 65.9, 72.9, 74.8, 67.7, 61.9, 62.9, 63.9, 63.7, 73.4, 73.7, 71.7, 55.6, 60, 67.8 (2×), 64.7, 62.6, 68.7, 64, 59.7, 70, 75.5, 68.1, 65.4, 63, 66.3 (2×), 70.1, 70.4, 66.5, 69, 47.8, 53.7%"
same,growth,[2]; runs of 2019,"inactive: 62.5, 51.2, 56.7, 49.5, 51, 53.6, 56.5, 54.5, 51.6 (2×), 58.1, 54.3 (2×), 60.3, 69.5, 62.1, 73.7, 60.7, 66.5, 62.8, 61, 64, 59.5, 59.6, 74.7, 45.1, 64.5, 56.1, 52.1, 66.1, 67.5, 58.5, 55.3, 52.3, 65.5, 65, 58.3, 66.6, 57.8, 75.8, 66.8, 69.7, 65.1, 61.9, 56.4%"

# — PubChem BioAssay (NCI)
